# Data: the supplement of paper PMC10037445
# Whole data set: some 2,900 compounds, median “NF-kB SEAP reporter activity, fold change vs agonist alone” near 0.99, cut for the highest 2% near 2.6. The list shows a part of the results.
# How the values were obtained:
# [1] = tested on: RAW-Dual; test: NF-kB SEAP reporter activity, fold change vs agonist alone; cytotoxicity flag (confluency mask): not cytotoxic; higher = enhanced NF-kB activity
# Summary of the method: (§1)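 Reporter activity is given as fold change relative to agonist-alone wells. To measure it, 50 nL of library stock was pin-tooled onto RAW-Dual macrophages (50,000 cells/well, DMEM, 384-well plates), a PRR agonist followed 1 h later, and cells stayed at 37 °C, 5% CO2. Twenty hours on, supernatant was assayed for IRF (QuantiLuc luminescence) and NF-κB (QuantiBlue, 620 nm absorbance), and wells under 70% of agonist-control IncuCyte confluency in both mask sets were marked cytotoxic.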
# [2] = tested on: RAW-Dual; test: NF-kB SEAP reporter activity, fold change vs agonist alone; higher = enhanced NF-kB activity; conditions: library stock concentration (final ~1000-fold dilution): 10 mM
# Summary of the method: as §1
# [3] = tested on: RAW-Dual; test: NF-kB SEAP reporter activity, fold change vs agonist alone; cytotoxicity flag (confluency mask): cytotoxic (confluency <70% of control); higher = enhanced NF-kB activity
# Summary of the method: as §1
# [4] = agonist: ODN 1826 (TLR9) 0.5 ug/mL
# [5] = agonist: Pam2CSK4 (TLR2/6) 0.1 ug/mL
# [6] = agonist: Pam3CSK4 (TLR2/1) 0.1 ug/mL
# [7] = cytotoxicity flag (confluency mask): not cytotoxic, agonist: Imiquimod (TLR7) […]
# [8] = cytotoxicity flag (confluency mask): not cytotoxic, agonist: MPLA (TLR4) […]
smiles,measurement,setting,value
Cc1c(Cn2c(C)nc3c(C(=O)O)cc(N4CCOCC4)cc32)cccc1C(F)(F)F (library stock concentration (final ~1000-fold dilution): 10 mM),NF-kB SEAP reporter activity,[1]; agonist: LPS (TLR4) 0.1 ug/mL,1.06
same,NF-kB SEAP reporter activity,[1]; [4],0.919
same,NF-kB SEAP reporter activity,[1]; [5],0.899
same,NF-kB SEAP reporter activity,[1]; [6],0.83
Cc1c(Cn2c(C)nc3c(C(=O)O)cc(N4CCOCC4)cc32)cccc1C(F)(F)F,NF-kB SEAP reporter activity,[2]; [7],0.84
same,NF-kB SEAP reporter activity,[2]; [8],0.998
CS(=O)c1ccc(-c2nc(-c3ccc(F)cc3)c(-c3ccncc3)[nH]2)cc1 (stereo not drawn),NF-kB SEAP reporter activity,[2]; [7],1.52
same,NF-kB SEAP reporter activity,[2]; [8],1.61
CS(=O)c1ccc(-c2nc(-c3ccc(F)cc3)c(-c3ccncc3)[nH]2)cc1 (stereo not drawn) (library stock concentration (final ~1000-fold dilution): 10 mM),NF-kB SEAP reporter activity,[1]; agonist: LPS (TLR4) 0.1 ug/mL,2.27
same,NF-kB SEAP reporter activity,[1]; [4],0.762
same,NF-kB SEAP reporter activity,[1]; [5],0.716
same,NF-kB SEAP reporter activity,[1]; [6],1.02
O=C(NCc1ccc(Oc2ccccc2)cc1)c1nc(-c2cc(Br)c(O)c(Br)c2)no1 (library stock concentration (final ~1000-fold dilution): 10 mM),NF-kB SEAP reporter activity,[1]; agonist: LPS (TLR4) 0.1 ug/mL,1.43
same,NF-kB SEAP reporter activity,[1]; [4],0.834
same,NF-kB SEAP reporter activity,[1]; [5],0.684
same,NF-kB SEAP reporter activity,[1]; [6],1.29
O=C(NCc1ccc(Oc2ccccc2)cc1)c1nc(-c2cc(Br)c(O)c(Br)c2)no1,NF-kB SEAP reporter activity,[2]; [7],1.2
same,NF-kB SEAP reporter activity,[2]; [8],1.51
Cc1cc(N2CC(C)NC(C)C2)ncc1-c1ccc(-c2nc3c(ccn3C)c(=O)[nH]2)cc1 (stereo not drawn) (library stock concentration (final ~1000-fold dilution): 10 mM),NF-kB SEAP reporter activity,[1]; agonist: LPS (TLR4) 0.1 ug/mL,2.18
same,NF-kB SEAP reporter activity,[1]; [4],0.278
same,NF-kB SEAP reporter activity,[1]; [5],1.38
same,NF-kB SEAP reporter activity,[1]; [6],1.63
Cc1cc(N2CC(C)NC(C)C2)ncc1-c1ccc(-c2nc3c(ccn3C)c(=O)[nH]2)cc1 (stereo not drawn),NF-kB SEAP reporter activity,[2]; [7],1.14
same,NF-kB SEAP reporter activity,[2]; [8],2.01
NC(=O)CCCSc1nc(N)nc(-c2c(Cl)cc3c4c(cccc24)COC3)n1,NF-kB SEAP reporter activity,[2]; [7],0.163
same,NF-kB SEAP reporter activity,[2]; [8],0.388
NC(=O)CCCSc1nc(N)nc(-c2c(Cl)cc3c4c(cccc24)COC3)n1 (library stock concentration (final ~1000-fold dilution): 10 mM),NF-kB SEAP reporter activity,[1]; agonist: LPS (TLR4) 0.1 ug/mL,0.263
same,NF-kB SEAP reporter activity,[1]; [4],0.199
same,NF-kB SEAP reporter activity,[1]; [5],0.076
same,NF-kB SEAP reporter activity,[1]; [6],0.147
COC(=O)NC(C(=O)N1CC2(CC2)CC1c1ncc(-c2ccc3c(c2)C(F)(F)c2cc(-c4ccc5nc(C6C7CCC(C7)N6C(=O)C(NC(=O)OC)C(C)C)[nH]c5c4)ccc2-3)[nH]1)C(C)C (stereo not drawn) (library stock concentration (final ~1000-fold dilution): 10 mM),NF-kB SEAP reporter activity,[1]; agonist: LPS (TLR4) 0.1 ug/mL,1.08
same,NF-kB SEAP reporter activity,[1]; [4],1.06
same,NF-kB SEAP reporter activity,[1]; [5],0.522
same,NF-kB SEAP reporter activity,[1]; [6],0.529
COC(=O)NC(C(=O)N1CC2(CC2)CC1c1ncc(-c2ccc3c(c2)C(F)(F)c2cc(-c4ccc5nc(C6C7CCC(C7)N6C(=O)C(NC(=O)OC)C(C)C)[nH]c5c4)ccc2-3)[nH]1)C(C)C (stereo not drawn),NF-kB SEAP reporter activity,[2]; [7],0.878
same,NF-kB SEAP reporter activity,[2]; [8],0.977
CN(C)CC(=O)Nc1ccc2[nH]c(=O)c3ccccc3c2c1.Cl,NF-kB SEAP reporter activity,[2]; [7],1.02
same,NF-kB SEAP reporter activity,[2]; [8],0.949
CN(C)CC(=O)Nc1ccc2[nH]c(=O)c3ccccc3c2c1.Cl (library stock concentration (final ~1000-fold dilution): 10 mM),NF-kB SEAP reporter activity,[1]; agonist: LPS (TLR4) 0.1 ug/mL,1.02
same,NF-kB SEAP reporter activity,[1]; [4],0.808
same,NF-kB SEAP reporter activity,[1]; [5],1.04
same,NF-kB SEAP reporter activity,[1]; [6],1.37
CS(=O)(=O)O.O=C(Nc1cccc(Cl)c1)Nc1ncc(CCNc2ncnc3ccsc23)s1,NF-kB SEAP reporter activity,"[2]; cytotoxicity flag (confluency mask): cytotoxic (confluency <70% of control), agonist: Imiquimod (TLR7) […]",0.503
same,NF-kB SEAP reporter activity,"[2]; cytotoxicity flag (confluency mask): cytotoxic (confluency <70% of control), agonist: MPLA (TLR4) […]",0.512
CS(=O)(=O)O.O=C(Nc1cccc(Cl)c1)Nc1ncc(CCNc2ncnc3ccsc23)s1 (library stock concentration (final ~1000-fold dilution): 10 mM),NF-kB SEAP reporter activity,[3]; agonist: LPS (TLR4) 0.1 ug/mL,1
same,NF-kB SEAP reporter activity,[3]; [4],0.54
same,NF-kB SEAP reporter activity,[3]; [5],0.153
same,NF-kB SEAP reporter activity,[3]; [6],0.292
